# From PubChem BioAssay (NCI)
# The source holds several records for some structures; these can differ, active in one and inactive in another.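 The endpoint reported here, percent growth, reads 100 for growth as untreated, 0 for no net growth and -100 for all cells dead.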 The source holds more than one record for some entries. Only these are listed. The calls were made as follows: active = growth percent below 10; inactive = the rest. There may be further records. These are repeated runs of one drug, at the concentration stated with the values; one value stands for one run. Counts like (3×) stand for listed records that agree.
# Tests used:
# CCRF-CEM leukemia = assay: NCI-60 one-dose screen, 48 h (100 = growth as untreated, 0 = no growth, -100 = all killed); details: 2.5 mM
# MOLT-4 leukemia = assay: as above; details: 2.5 mM
structure (smiles),measurement,setting,value
O=c1[nH]cc(F)c(=O)[nH]1,growth,CCRF-CEM leukemia; runs of 1992,"inactive: 27.7 (2×), 20.4, 25.1, 38.4, 23.1, 11.6, 21.3 (2×), 13.7, 22.7 (2×), 15.2, 16.6, 21, 34.9, 11.3, 21.4, 26.3, 25.6, 50.8, 25.7 (2×), 42.4, 23.4, 15.7 (2×), 21.8 (3×), 13.2, 26.1, 10.9, 29.4, 39.5, 25.4 (2×), 53.7, 22.1 (2×), 19.5 (3×), 17.3 (2×), 18.5, 30.4, 27.6, 16.8, 32.8, 34.7, 19.9 (2×), 21.7, 22.9, 26.5, 30.5 (2×), 16.5, 16.9 (3×), 22.3, 15.4, 15.3, 20.7 (2×), 18.3 (2×), 19.1 (2×), 17.5, 11.7, 23.2, 12.5, 12.6, 12.9, 15, 29.7, 19.6 (2×), 37.6, 12, 11.5, 20.8, 35.3, 24.6, 20, 22.5 (3×), 25.8, 16.1, 22.8, 57.3, 16.2, 22.4, 23.8, 15.1, 19.2 (2×), 23.3, 19.8, 73.4, 33.4, 20.2, 22.2, 28.8, 23.7, 37.3, 23% and active: 7, -19.9, -2.73, 1.99, -10.9, -32.8, 9.57, 7.06, -10.8, 3.74, -72.4%"
same,growth,CCRF-CEM leukemia; runs of 1993,"inactive: 20.8 (2×), 23.6, 12.1, 57.3, 25.3, 27.4, 26.6, 35.1, 10.7, 16, 15, 19.7, 20.5, 13.3, 17.2, 11.6, 21 (2×), 14, 22.1, 19.1, 16.2, 10.1, 25.4 (2×), 15.2, 51.8, 26.7, 18.8, 11.8, 21.1, 27.1, 27.7, 27, 23.4, 21.5, 17.3, 16.8, 64.4% and active: 0.0802, 6.28, -9.26, 2.67, 7.47, 9.17, 3.32%"
same,growth,CCRF-CEM leukemia; runs of 1994,"inactive: 27.3, 31.2, 28.8, 57.5, 35.8, 19.9, 31.8, 17.3, 51, 22.4 (2×), 21.4, 16.3, 13.5, 15.2, 11.5, 53.7, 27.8, 24.2, 19.4, 16.6, 23.8 (2×), 33.6, 11.9% and active: 9.82, -8.45, -18.3, 1.45, 7.04, -16.7%"
same,growth,CCRF-CEM leukemia; runs of 1995,"inactive: 18.6 (2×), 28.2, 31.5, 12.7, 27.7, 11.6, 27.2, 22.8, 20.7, 27.5, 27.9, 20.9, 15, 18.3, 11.4, 26, 18.7, 32, 15.6, 34.4, 21.5, 11.5% and active: -17.8, 5.75, -16.4, 4.82, -1.4, 0.246, 6.24, -18.1, 6.98, -20.9, 8.52, 4.28, -23.2, -10.2%"
same,growth,CCRF-CEM leukemia; runs of 1996,"inactive: 13.5, 37, 15.1, 17.8 (2×), 14.4, 76.9, 30.6, 17, 15.4, 60.6, 27.2, 18.2, 18.9, 13.2, 20.2, 16.4, 12.1, 30.1, 41.7, 19, 24.2, 33.5, 29.5, 21.4, 13.8, 39.7, 19.6, 25, 16.9, 12.9, 18, 19.9% and active: 3.57, -12.1, -18 (2×), 4.93, 8.6, 9.71, 5.71, -25.9, 7.45, 9.01, -18.9, -9.44, -3.37, 7.93, -27.9, 2.61, -31.2%"
same,growth,CCRF-CEM leukemia; runs of 1997,"inactive: 22.3, 12.6, 10.2, 14.9 (2×), 29.5, 28, 16.7, 16.8, 27, 26.5, 34.5, 31.6, 21, 45.8, 33.9, 100, 40.7, 60, 39.3, 12.9, 32.8, 93.3, 111, 16.1% and active: 5.66, 5.01, -52.9, 8.81, -25.9, -34.4, 9.98, 8.29, -3.64, -23.9, -33.5%"
same,growth,CCRF-CEM leukemia; runs of 1998,"inactive: 36.6, 13.3, 62.9, 68.9, 51.8, 14.6, 27.5, 34.4, 33.1, 23.4, 46.6, 49.2, 45.5, 32.1, 39.5, 20.2, 19.3% and active: -48.2, 5.05, -1.44, 8.58%"
same,growth,CCRF-CEM leukemia; runs of 1999,"inactive: 40.6, 43.9, 17.6, 12.7, 25.3% and active: 5.09, 2.33, -7.29, -76.7, 5.13, 2.16, -40.8%"
same,growth,CCRF-CEM leukemia; runs of 2000,"active: 5.34, -69, 8.9, -44.4%"
same,growth,MOLT-4 leukemia; runs of 1991,"inactive: 13.8, 18.9, 17.9, 28.1, 15.7, 22.1, 19, 10.9, 22.2, 24, 33.8% and active: 8.02, 8.92, 4.31, 7.66, -11.7, 5.97, 6.82, 5.34%"
same,growth,MOLT-4 leukemia; runs of 1992,"inactive: 27.6, 54, 13.6, 11.4 (2×), 36.7, 15, 50.2, 75.2, 16.3, 14.6, 17.8, 15.9, 15.4, 26, 13.8 (3×), 13.7 (2×), 13, 22.2, 16.9, 11, 10.5, 12.4, 16.5, 11.6, 23.7, 12.1 (2×), 10, 12.2, 12.5, 15.5, 14.1, 11.1, 19.3, 17.6, 10.7, 25.1, 15.7, 10.4, 40.5% and active: 9.9, 5.64, -4, 7.9, -20.3, -18.6, 0.135, 8.27, -27, -28.3, -22, -9.47, 6.48, 8.02, 5.2, 7.16, 8.81, 8.13, 5.08, 8.34, 5.91, 6.8, 4.94, 6.91, 6.82, -20.7, 0.316, 3.66, 6.24, 4.41, 4.82 (2×), -5.5, 5.61, 7.81, 2.99, 5.21, 1.52, -0.904, 7.42, -5.31, -12.1, 6.63, 4.97, -12.9, 2.22, -2.75, -13.1, 3.98, 4.96, 3.87, 0.266, 2.97, 5.85, 3.23, 7.33, 9.87, -2.76, -4.9, 6.35, 2.83, -2.65, -6.41, -15.8, -9.1, 7.43, 2.19, 9.72, 7.07, -5.75, 4.79, 8.35, 0.959, 1.25%"
same,growth,MOLT-4 leukemia; runs of 1993,"active: 6.99, 8.58, 5.29, 4.26, -6.78, 9.83, 6.96, 2.63, -15.9, -0.625, 2.47, -3.65, 6.32, -18.6, 2.98, 2.13, -14.7, 1.03, 5.52, 2.54, 3.03, -3.03, 4.55, 2.73, 3.21, -4.53, 2.3, -10.1, -45.6, 7.07, 0.427% and inactive: 47, 57.5, 22.6, 10.1, 28.4, 12.5, 32.7, 40.3, 11.7, 15, 58.6, 12.1, 94.4, 14.1, 64.2, 13.5, 22.2, 11.6, 14.3%"
same,growth,MOLT-4 leukemia; runs of 1994,"active: 4.41, -12.9, -22.2, -25.5, 4.5, 3.36, -5.21, 5.63, -13.1, -16.3, 1.28, -0.655, 3.29, -7.31, 8.95, -13.4, -11.7, 6.43, -16.9% and inactive: 41.6, 15.5, 33.1, 18.1 (2×), 15.2, 26.8, 71.4, 19.1, 15.8, 18, 14.1, 27.4, 16.4, 43.2%"
same,growth,MOLT-4 leukemia; runs of 1995,"active: 9.56, 7.9, -4.48, 9.52, 5.38, -10.4, 6.06, -0.178, 3.84, -16, 4.65, 7.06, 2.52, 8.04, 5.98, -8.87, -12.5, 0.428, -7.92, -27.9, 2.56, -6.97, -20.8, -37.9, -7.14% and inactive: 23.3, 19.7, 12.6, 14.7, 24.7, 25.3, 10.9, 11.3, 46.4, 31.5, 14.9, 14, 20.2, 10.1%"
same,growth,MOLT-4 leukemia; runs of 1996,"active: 4.99, -18.8, -15, -0.277, 0.163, -30.2, 2.04, -34.8, -4.76, 1.21, -33.4, -25.4, -26.8, -51.4, -38.2, 4.71, -15.8, -12.3, -0.156, -25.6, -44.2, -32.3, -57.3 (2×), -20.8, -7.34, 7.47, -15.5, -3.53, -14.9, -35.9, -13.6, -2.13, 1.88, -6.59, 7.66, 3.13, -9.31, -32.2, 4.58% and inactive: 18, 26.3, 40.9, 14.9, 37.5, 12.2, 12.1, 10.5, 14.2, 27.7, 10.7, 15, 18.5%"
